# Tested on: MKN28 stomach cancer cell line
# Conditions: administered simultaneously with adenovirus expressing Runx3 protein, FIG. 8
row,Compound,cancer apoptotic effect versus adenovirus expressing Runx3 protein alone
1,CC(=O)c1c(C)c2cnc(Nc3ccc(N4CCNCC4)cn3)nc2n(C2CCCC2)c1=O [PD0332991],significantly increased
2,CO[C@H]1C[C@@H]2CC[C@@H](C)[C@@](O)(O2)C(=O)C(=O)N2CCCC[C@H]2C(=O)O[C@H]([C@H](C)C[C@@H]2CC[C@@H](O)[C@H](OC)C2)CC(=O)[C@H](C)/C=C(\C)[C@@H](O)[C@@H](OC)C(=O)[C@H](C)C[C@H](C)/C=C/C=C/C=C/1C [rapamycin],significantly increased

# Source: US12414980B2, “Pharmaceutical composition comprising RUNX3 protein and CDK4 inhibitor or mTOR inhibitor cotreatment for prevention or treatment of cancer” (GeneCraft Inc., priority 2020, dated 2025)
